# Where “and” joins values, the source holds several entries; their conditions need not be identical. Identical values can stand only once. ± gives the uncertainty stated by the source. Whole data set: some 9,900 compounds, median “viability index relative to DMSO control” near 1, cut for the lowest 2% near 0.85. The list shows a part of the results.
# System: Plasmodium falciparum NF54 stage V gametocytes
# Test: viability index relative to DMSO control (fraction); higher = less gametocyte killing
# Conditions: 2.5 µM, incubation time: 72 h
# In short: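 P. falciparum NF54 stage V gametocytes (serum-free medium, 0.75% gametocytemia, 1.25% hematocrit) were exposed to compound at 2.5 µM for 72 hr at 37°C under low oxygen, then stained with MitoTracker Red CMXRos and saponin for one to two hours. Red particles of 20–70 µm2 in one field per well were counted, and the viability index is that count scaled to the plate mean of solvent-only wells.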
# [1] = library set: Broad Institute DOS
Structure (SMILES),viability index [1],viability index (library set: Broad Institute Blood Stage)
CN(C)CC(=O)N1CC2(C1)[C@@H](c1ccccc1)[C@H](CO)N2C(=O)C1CC1,1 ± 0.051,–
CN(C)Cc1cn(CC[C@@H]2CC[C@H](NC(=O)Cc3cccnc3)[C@@H](CO)O2)nn1,1.09 ± 0.096,–
O=C(NC1CCCC1)N1CCCCN2[C@H](C1)[C@H](c1ccc(-c3cccnc3)cc1)[C@@H]2CO,1.08 ± 0.012,–
O=C(CC(F)(F)F)N1C[C@H]2[C@@H](c3ccccc31)[C@H](CO)N2C(=O)C1CCCCC1,1.01 ± 0.13,–
COC(=O)C[C@H]1CC[C@@H](N)[C@@H](CO)O1,0.992 ± 0.036,–
O=C(C[C@@H]1CC[C@@H](NC(=O)c2ccc(F)cc2)[C@H](CO)O1)NCCc1ccccc1,1.17 ± 0.061,–
O=C(Nc1cccc(Cl)c1)N1C[C@@H]2[C@H](c3ccccc31)[C@H](CO)N2Cc1cccnc1,0.963 ± 0.065,–
CN1C(=O)c2cc(NC(=O)Cc3cccs3)ccc2OC[C@H]2O[C@H](CC(=O)NCc3ccc(-c4ccccc4)cc3)CC[C@H]21,1.19 ± 0.15,–
COc1ccccc1C(=O)Nc1ccc2c(c1)C(=O)N(C)C[C@@H](OC)[C@H](C)CN(C(C)=O)[C@H](C)CO2,1.05 ± 0.15,–
CO[C@H]1CN(C)C(=O)c2ccc(NC(=O)c3cccc(F)c3)cc2OC[C@H](C)NC[C@@H]1C,1.08 ± 0.039,–
O=C([C@@H]1[C@@H](CO)[C@@H]2Cn3c(cccc3=O)[C@@H]2N1C(=O)CC1CC1)N1CCc2ccccc2C1,1.04 ± 0.031,–
CC[C@H]1C/C=C/C[C@H](C)Oc2ccccc2C(=O)N(C)[C@@H](C)C(=O)N1.CC[C@H]1C/C=C\C[C@H](C)Oc2ccccc2C(=O)N(C)[C@@H](C)C(=O)N1,1.12 ± 0.018,–
CN1CCN(C(=O)C[C@@H]2CC[C@@H]3[C@H](COC[C@H](O)CN3C(=O)Nc3ccc4c(c3)OCO4)O2)CC1,1.07 ± 0.013,–
C[C@@H]1CN([C@@H](C)CO)C(=O)c2cc(C3=CCCCC3)cnc2O[C@H]1CN(C)S(=O)(=O)c1cn(C)cn1,1.04 ± 0.015,–
CCCC(=O)Nc1ccc2c(c1)C(=O)N(C)[C@@H]1CC[C@H](CC(=O)NCc3cccc(F)c3)O[C@H]1CO2,1.05 ± 0.1,–
Cc1ccc(S(=O)(=O)N(C)C[C@H]2OCCCC[C@H](C)Oc3ccc(NC(=O)c4ccncc4)cc3C(=O)N([C@@H](C)CO)C[C@H]2C)cc1,1.076 ± 0.0071,–
CO[C@@H]1CN(C)C(=O)c2cc(NC(=O)c3ccc(F)cc3)ccc2OC[C@H](C)N(C(=O)CC2CC2)C[C@@H]1C,1.12 ± 0.069,–
OC[C@H]1[C@@H]2c3ccccc3NC[C@@H]2N1CC1CCOCC1,1.02 ± 0.072,–
CCS(=O)(=O)N1C[C@@]2(C1)CN([C@H](CO)c1[nH]c3cc(OC)ccc3c21)C(=O)c1ccc(F)cc1,1.05 ± 0.045,–
N#Cc1cccc(-c2ccc([C@@H]3[C@H]4CNC[C@@H]3N4Cc3cc(F)ccc3F)cc2)c1,0.861 ± 0.057,–
Cc1noc(C)c1NC(=O)Nc1ccc2c(c1)C(=O)N(C)[C@@H]1CC[C@@H](CC(=O)N[C@@H]3CCN(Cc4ccccc4)C3)O[C@H]1CO2,1.06 ± 0.059,–
COCC(=O)N1[C@H](CO)[C@@H](c2ccc(C#CCC3CCCC3)cc2)[C@@H]1C#N,1.13 ± 0.11,–
CC(C)NC(=O)N1[C@H](CO)[C@@H](c2ccccc2)C12CN(C(=O)c1ccccn1)C2,1.11 ± 0.021,–
O=C(C[C@H]1CC[C@H](NC(=O)c2ccc3c(c2)OCO3)[C@@H](CO)O1)NCc1ccc(Oc2ccccc2)cc1,1.17 ± 0.013,–

Structure (SMILES),viability index [1],viability index (library set: Broad Institute Blood Stage)
CN(C)C(=O)c1cccc(-c2ccc([C@@H]3[C@@H](CO)N4C(=O)CN(C(=O)C5CCC5)C[C@@H]34)cc2)c1,0.998 ± 0.032,–
CCCNC(=O)N1C[C@]2(CCN(Cc3cccc(OC)c3)CC2)c2c([C@@H]1CO)n(C)c1cc(OC)ccc21,1.01 ± 0.17,–
CCCN(C)C[C@@H]1OCCCC[C@@H](C)Oc2ccc(NC(=O)CCCN(C)C)cc2C(=O)N([C@H](C)CO)C[C@@H]1C,1.12 ± 0.092,–
CCCNC(=O)Nc1ccc2c(c1)OC[C@H](C)N(C(=O)C1CCOCC1)C[C@@H](C)[C@@H](OC)CN(C)C2=O,1.01 ± 0.087,–
CO[C@H]1CN(C)C(=O)c2cc(NC(=O)c3ccc(Oc4ccccc4)cc3)ccc2OC[C@H](C)NC[C@H]1C,1.04 and 1.05,–
COc1ccccc1NC(=O)N1[C@H](CO)[C@H](c2ccccc2)[C@@H]1C#N,1.09 ± 0.038,–
O=C(CN1CCOCC1)N1CC[C@@H]2[C@H]1c1cc(Br)ccc1N[C@@H]2CO,0.914 ± 0.051,–
C[C@@H]1CN([C@@H](C)CO)C(=O)CCCn2nncc2CO[C@H]1CN(C)C(=O)Nc1ccccc1C(F)(F)F,1.04 ± 0.089,–
COc1ccc2c3c([nH]c2c1)[C@H](CO)N(CC1CC1)C[C@]31CN(C1)C(=O)c1ccc(F)cc1,0.9972 ± 0.0017,–
COc1ccccc1NC(=O)N1C[C@@H]2[C@H](c3ccccc31)[C@H](CO)N2CC1CCOCC1,1.06 ± 0.062,–
C[C@@H]1CN([C@H](C)CO)C(=O)CCCn2nncc2CO[C@@H]1CN(C)C(=O)c1ccc(N2CCN(C)CC2)cc1,0.967 ± 0.011,–
CCCNC(=O)N1[C@@H](CO)[C@@H]2c3ccccc3N(C(=O)Nc3cccc(Cl)c3)C[C@@H]21,1.054 ± 0.0044,–
Cc1ccccc1-c1ccc([C@@H]2[C@H](CO)N3C(=O)CN(C(=O)c4ccncc4)C[C@@H]23)cc1,1.04 ± 0.041,–
O=S(=O)(c1ccc(F)cc1)N1C[C@@H]2N[C@H](C1)[C@H]2c1ccc(/C=C/c2ccccc2)cc1,1.04 ± 0.055,–
CC(C)NC(=O)N(C)C[C@H]1Oc2ccc(NC(=O)Cc3ccccc3)cc2CC(=O)N([C@H](C)CO)C[C@@H]1C,0.945 ± 0.15,–
CO[C@@H]1CC[C@@H]2CCN(C)C(=O)[C@@H](C)N(C)C(=O)c3cccc(C#N)c3OC[C@H]1O2,0.993 ± 0.041,–
N#C[C@@H]1[C@@H](c2ccc(-c3cccc(F)c3)cc2)[C@H](CO)N1C(=O)NC1CCCC1,0.935 ± 0.064,–
C[C@@H]1CN([C@H](C)CO)C(=O)c2cccc(NC(=O)c3ccncc3)c2O[C@@H]1CN(C)Cc1ccc2c(c1)OCO2,0.966 ± 0.0098,–
COc1ccc(-c2ccc([C@H]3[C@H]4CNC[C@@H]3N4S(=O)(=O)Cc3ccccc3)cc2)cc1,1.07 ± 0.011,–
CC(=O)NC[C@@H]1[C@@H](c2ccc(C3=CCCC3)cc2)[C@H](CO)N1Cc1cccnc1,1.04 ± 0.046,–
O=C(C[C@H]1C=C[C@H](NC(=O)c2ccncc2)[C@H](CO)O1)NCC1CC1,1.09 ± 0.065,–
CC(C)CC#Cc1ccc([C@@H]2[C@@H](CO)N3C(=O)CN(C(=O)c4ccccn4)C[C@@H]23)cc1,1.04 ± 0.036,–
COc1ccc(-c2ccc3c(c2)[C@H]2[C@H](CCN2C(=O)Nc2ccccc2OC)[C@H](CO)N3C)cc1,0.897 ± 0.011,–
CN1C(=O)c2cc(NC(=O)Cc3cccs3)ccc2OC[C@@H]2O[C@H](CC(=O)NCC3CCCCC3)CC[C@H]21,1.15 ± 0.05,–

Structure (SMILES),viability index [1],viability index (library set: Broad Institute Blood Stage)
COc1cccc(NC(=O)N[C@@H]2CC[C@@H](CC(=O)N3CCN(C)CC3)O[C@@H]2CO)c1,1.11 ± 0.06,–
C/C=C/c1ccc([C@@H]2[C@H](CO)N3CCCCN(S(=O)(=O)c4ccc(OC)cc4)C[C@@H]23)cc1,1.03 ± 0.014,–
C[C@H](CO)N1C[C@H](C)[C@H](CN(C)C(=O)Nc2ccccc2)Oc2ccc(NS(=O)(=O)c3ccc(F)cc3)cc2C1=O,0.908 ± 0.069,–
N#Cc1cccc(-c2ccc([C@H]3[C@H]4CN(Cc5ccccc5F)CCCCN4[C@H]3CO)cc2)c1,1.06 ± 0.024,–
O=C(C[C@@H]1CC[C@H]2[C@@H](COC[C@@H](O)CN2C(=O)Nc2ccccc2)O1)NCc1ccccc1F,1.02 ± 0.029,–
COc1ccc2c3c([nH]c2c1)[C@H](CO)N(Cc1ccccc1)C[C@]31CN(C1)C(=O)c1ccccn1,0.92 ± 0.023,–
CO[C@H]1CN(C)C(=O)c2cc(NC(C)=O)ccc2OC[C@@H](C)N(S(C)(=O)=O)C[C@@H]1C,1.02 ± 0.029,–
C[C@@H]1CN([C@@H](C)CO)C(=O)Cc2cc(NC(=O)CCN3CCOCC3)ccc2O[C@@H]1CN(C)Cc1ccc(C(=O)O)cc1,0.9784 ± 0.0024,–
COc1ccc(S(=O)(=O)Nc2ccc3c(c2)[C@H]2C[C@@H](CC(=O)N(C)C)O[C@@H](CO)[C@H]2O3)cc1,1.07 ± 0.052,–
CO[C@H]1CN(C)C(=O)c2cccc(C#N)c2OCC[C@H]2CC[C@@H](OC)[C@H](CN(C)C(=O)[C@@H]1C)O2,1.02 ± 0.041,–
Cc1noc(C)c1NC(=O)N[C@H]1C=C[C@@H](CC(=O)Nc2ccc(-c3ccccc3)cc2)O[C@H]1CO,1.03 ± 0.078,–
COc1cccc(S(=O)(=O)N(C)C[C@@H]2OCc3ccccc3-c3c(n(C)c4ccccc34)C(=O)N([C@H](C)CO)C[C@@H]2C)c1,0.826 ± 0.058,–
COc1ccccc1-c1ccc([C@H]2[C@@H](C#N)N[C@@H]2CO)cc1,1.11 ± 0.069,–
Cc1ccc(S(=O)(=O)N2C[C@H](O)COC[C@H]3O[C@H](CC(=O)NCc4ccc5c(c4)OCO5)CC[C@@H]32)cc1,1.09 ± 0.042,–
COc1cccc(CN2C[C@]3(CN(C)C3)c3c([C@H]2CO)n(C)c2cc(OC)ccc32)c1,0.996 ± 0.085,–
CCS(=O)(=O)N1C[C@@]2(C1)CN([C@H](CO)c1c2c2ccc(OC)cc2n1C)C(=O)NC(C)C,1.01 ± 0.083,–
COc1ccccc1C#Cc1ccc([C@@H]2[C@@H](CO)N3CCCCN(CCC(F)(F)F)C[C@H]23)cc1,–,0.759 ± 0.06
C/C=C/c1ccc([C@H]2[C@@H](CO)N3C(=O)CN(Cc4ccc(F)cc4)C[C@@H]23)cc1,0.992 ± 0.064,–
CCCN(C)C[C@H]1OCCCC[C@H](C)Oc2ccc(NC(=O)CCCN(C)C)cc2C(=O)N([C@H](C)CO)C[C@@H]1C,1.06 ± 0.054,–
CCCNC(=O)N1CC2(C1)[C@@H](c1ccccc1)[C@@H](CO)N2CC1CCOCC1,1.04 ± 0.028,–
CCS(=O)(=O)N1[C@H](CO)[C@@H](c2ccc(C#CCC3CCCC3)cc2)[C@@H]1C#N,1.04 ± 0.025,–
Cc1ccc(S(=O)(=O)N2C[C@@H](O)COC[C@H]3O[C@@H](CC(=O)NCc4ccc5c(c4)OCO5)CC[C@@H]32)cc1,1.102 ± 0.01,–
Cc1noc(C)c1S(=O)(=O)N(C)C[C@H]1OCCCC[C@H](C)Oc2ccc(NC(=O)CCC(F)(F)F)cc2C(=O)N([C@@H](C)CO)C[C@@H]1C,1.02 ± 0.024,–

# Reference: the supplement of paper PMC4723716
